Data as given in the supplement of paper PMC3724861.
Some of the results follow.

test system: T1, Caupolican (Caup) homeodomain DNA-binding domain; test: PBM E-score (8-mer, recovered from the published 9-mer minima) (E-score (dimensionless, -0.5 to 0.5)); Drosophila protein; higher = stronger relative binding preference, active = 0.31 or more
T1 sequence: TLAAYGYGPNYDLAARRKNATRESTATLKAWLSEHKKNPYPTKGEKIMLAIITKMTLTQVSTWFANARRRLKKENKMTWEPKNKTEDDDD
Summary of the method: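 An enrichment score, with higher meaning stronger, expresses relative binding preference for each short DNA word. The protein used was Caup's homeodomain DNA-binding domain (residues 214-303), produced by in vitro transcription and translation and tested at 100 nM on custom-designed protein binding microarrays. The 8-mer values were recovered from published 9-mer scores, each equal to the lower of its two constituent 8-mer scores.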

Sequence	PBM E-score
ATCTCCAT	inactive: -0.0205
ATTTATTA	inactive: 0.159
TTTGAAAA	inactive: 0.105
ACAAGCTC	inactive: 0.174
CGAAGGAC	inactive: -0.134
GGCCAGCC	inactive: -0.303
CACTGTCG	inactive: -0.00412
GACTAGTA	inactive: 0.181
ACTATTTC	inactive: 0.118
ACCCCCCG	≥ -0.261
CTATTCCA	inactive: 0.057
AGCAACTG	inactive: 0.0583
ACTAAAAT	inactive: 0.00661
TCGGACGA	≥ 0.0284
CAGAAGAA	inactive: -0.128
AAACTGTT	inactive: 0.148
AACTCGTG	inactive: 0.0974
AACATTCT	inactive: 0.198
CTGGACAC	inactive: 0.127
GTCCTGAA	inactive: -0.0522
AATCCAGA	inactive: 0.0913
ATGCGGCG	inactive: -0.141
AGCCCGGG	inactive: -0.238
GCGGGGTA	inactive: -0.169

Sequence	PBM E-score
AGGATCAT	inactive: 0.0598
AATCGCCC	inactive: -0.222
CTAAATAA	inactive: 0.181
GGTGAGGA	inactive: -0.185
TACAATGA	inactive: 0.266
ATTACCCC	inactive: -0.0955
CCGCGACA	inactive: 0.0973
GCAATCAA	≥ 0.14
GCTACTAC	inactive: 0.0967
ATTTGGAC	inactive: 0.134
TAGCAAGA	inactive: 0.142
AAGCACGT	≥ 0.0899
CGGTCATA	inactive: -0.0654
CCTAGCAC	inactive: -0.0903
AATGACAC	inactive: 0.277
ATATTAGC	inactive: 0.157
ATAGCGGC	inactive: -0.136
AGGTCACG	inactive: -0.0767
GGTAGGAC	inactive: -0.125
CCCGCCTC	inactive: -0.15
CCCGGAAG	inactive: -0.276
AGACGCTA	inactive: -0.084
AATGGCAA	inactive: -0.0138
ACCACCGC	inactive: -0.0681

Sequence	PBM E-score
CAATTACA	active: 0.334
CATAGAGA	inactive: 0.113
CCGGACAG	inactive: 0.0176
CGGAAATC	inactive: -0.0888
ACGTTCAC	inactive: 0.0125
CTGTACAC	inactive: 0.284
ACTATAGC	inactive: 0.0259
CCATCTAC	inactive: -0.0737
CCAGATGG	inactive: -0.168
TAAGATTA	inactive: 0.0251
CTCGACGC	inactive: -0.0524
GCTGCTCA	inactive: -0.0422
ATGGATCG	inactive: -0.0232
CACAAGAG	inactive: 0.022
GAATGCAC	inactive: 0.0473
ACCCGCTC	inactive: -0.235
ATTAATGC	inactive: 0.0182
CGCAAAGA	inactive: -0.0403
GAAGCCAA	inactive: -0.168
CACCGCTG	inactive: -0.123
AGAACTAC	inactive: 0.18
TGCGCGCA	inactive: -0.0447
CTCACTCA	inactive: 0.0463
ATCCTTCC	inactive: -0.048

Sequence	PBM E-score
CGACAAGA	active: 0.317
ATGGCTCG	inactive: -0.0111
CAGCATGC	inactive: 0.00197
GGCACTCA	inactive: -0.101
ATAGGGAA	inactive: -0.0647
AAGTGGGT	inactive: -0.137
TGAGGAAA	inactive: 0.00643
CGTGAAGC	inactive: -0.189
ACCAACGT	inactive: 0.0687
AAGAGTAG	inactive: -0.0204
ACATTCGC	inactive: 0.0849
AAGCGCGT	inactive: -0.156
CAGTTAAG	inactive: 0.0884
CCGGACCC	inactive: -0.243
ACGGCTAC	inactive: -0.106
AGTTTCAG	inactive: -0.0628
ACCGGTCT	inactive: -0.11
ATGAAAAA	inactive: 0.0536
AAGGACGC	inactive: -0.116
TAGGTCGA	inactive: -0.0677
CCCTTATC	inactive: -0.052
GAGATGCC	inactive: -0.0386
ATCAATAC	inactive: 0.144
GACAACGA	inactive: 0.179

Sequence	PBM E-score
CGTTCGTC	inactive: -0.00872
CATCGTGA	inactive: -0.0534
ATAGTGGA	inactive: 0.071
GGCCCCTA	inactive: -0.291
CTTTAGCC	inactive: -0.125
CTGTGAAC	inactive: 0.131
ATCGGCAG	inactive: -0.147
ACTCACTA	inactive: 0.0626
ACAAACGG	inactive: 0.0483
AGAGCTCC	inactive: -0.257
GTAGGCTA	inactive: -0.0057
ATACAACA	active: 0.373
CGAGTAGC	inactive: -0.0374
GTAAGTAA	inactive: 0.141
GAGATAAC	inactive: 0.0299
GTAGATCA	inactive: 0.108
ATAGAGAC	inactive: 0.0227
ATACAGAC	inactive: 0.194
TACCTGGA	inactive: 0.0703
CGGCGACC	inactive: -0.261
AGCTTCAC	inactive: -0.0515
CTTATTCC	inactive: 0.00982
AGCGCCAC	inactive: -0.225
ATCAGGAG	inactive: -0.0418

Sequence	PBM E-score
GAGCTCCC	inactive: -0.288
ACTTAACC	inactive: 0.0525
TGAAGTAA	inactive: 0.0135
AAAAGATC	inactive: -0.053
ATCTACAA	inactive: 0.253
CACCATGG	inactive: -0.00796
GTAATCTA	≥ 0.259
ACGCGCTC	inactive: -0.0722
AATAAATT	inactive: 0.103
TGCTATAA	inactive: 0.051
AAGGGGAC	inactive: -0.0768
ACATGCGC	inactive: 0.288
CACATGCA	inactive: 0.166
ATAGTGAG	inactive: 0.0734
AAGTGGAC	inactive: -0.00011
AGCCTAAA	inactive: -0.0263
ATCAGGTA	inactive: 0.105
CCCTGTCG	inactive: -0.0227
CGCTCACC	inactive: -0.187
AGCACCTG	inactive: -0.0731
GCTATACC	inactive: -0.0691
AACGGTCC	inactive: -0.136
